B1: AUGAGGU (DNA:RNA)
RNA: GGGAGACCGGAAUUCAGAUUGUCCAUGAGGUUUAAAUCCCGUCGUAGCCACCA
DNA 1: CAATCTGAATTCCGGTCTCCC
DNA 2: TGGTGGCTACGACGGGATT
B2: CUGUGUC (DNA:RNA)
RNA: B1 RNA with A25C, A28U, G30U, U31C
DNA 1: CAATCTGAATTCCGGTCTCCC
DNA 2: TGGTGGCTACGACGGGATT
B3: UCUGCAA (DNA:RNA)
RNA: GGGAGACCGGAAUUCAGAUUGUCCUCUGCAAUUAAAUCCCGUCGUAGCCACCA
DNA 1: CAATCTGAATTCCGGTCTCCC
DNA 2: TGGTGGCTACGACGGGATT
B4: UGGCUCC (DNA:RNA)
RNA: B1 RNA with A25U, U26G, A28C, G29U, G30C, U31C
DNA 1: CAATCTGAATTCCGGTCTCCC
DNA 2: TGGTGGCTACGACGGGATT
B5: UUCGUAU (DNA:RNA)
RNA: B3 RNA with C26U, U27C, C29U, A31U
DNA 1: CAATCTGAATTCCGGTCTCCC
DNA 2: TGGTGGCTACGACGGGATT
B6: CGACAAC (DNA:RNA)
RNA: B3 RNA with U25C, C26G, U27A, G28C, C29A, A31C
DNA 1: CAATCTGAATTCCGGTCTCCC
DNA 2: TGGTGGCTACGACGGGATT
B7: CGAACGU (DNA:RNA)
RNA: B1 RNA with A25C, U26G, G27A, G29C
DNA 1: CAATCTGAATTCCGGTCTCCC
DNA 2: TGGTGGCTACGACGGGATT
B8: UCACGGU (DNA:RNA)
RNA: B1 RNA with A25U, U26C, G27A, A28C
DNA 1: CAATCTGAATTCCGGTCTCCC
DNA 2: TGGTGGCTACGACGGGATT
B9: UGGAUGA (DNA:RNA)
RNA: B1 RNA with A25U, U26G, G29U, U31A
DNA 1: CAATCTGAATTCCGGTCTCCC
DNA 2: TGGTGGCTACGACGGGATT
B10: CUUGGAU (DNA:RNA)
RNA: B1 RNA with A25C, G27U, A28G, G30A
DNA 1: CAATCTGAATTCCGGTCTCCC
DNA 2: TGGTGGCTACGACGGGATT
B11: GCCCCGG (DNA:RNA)
RNA: B3 RNA with U25G, U27C, G28C, A30G, A31G
DNA 1: CAATCTGAATTCCGGTCTCCC
DNA 2: TGGTGGCTACGACGGGATT
B12: ACUGGGC (DNA:RNA)
RNA: B1 RNA with U26C, G27U, A28G, U31C
DNA 1: CAATCTGAATTCCGGTCTCCC
DNA 2: TGGTGGCTACGACGGGATT
B13: GUGGGCG (DNA:RNA)
RNA: B1 RNA with A25G, A28G, G30C, U31G
DNA 1: CAATCTGAATTCCGGTCTCCC
DNA 2: TGGTGGCTACGACGGGATT
B14: CGACGGA (DNA:RNA)
RNA: B1 RNA with A25C, U26G, G27A, A28C, U31A
DNA 1: CAATCTGAATTCCGGTCTCCC
DNA 2: TGGTGGCTACGACGGGATT
B15: AGCGCUG (DNA:RNA)
RNA: B3 RNA with U25A, C26G, U27C, A30U, A31G
DNA 1: CAATCTGAATTCCGGTCTCCC
DNA 2: TGGTGGCTACGACGGGATT
B16: GCCCCAG (DNA:RNA)
RNA: B3 RNA with U25G, U27C, G28C, A31G
DNA 1: CAATCTGAATTCCGGTCTCCC
DNA 2: TGGTGGCTACGACGGGATT
B17: GUCGAGA (DNA:RNA)
RNA: B1 RNA with A25G, G27C, A28G, G29A, U31A
DNA 1: CAATCTGAATTCCGGTCTCCC
DNA 2: TGGTGGCTACGACGGGATT
B18: GCGUAAA (DNA:RNA)
RNA: B3 RNA with U25G, U27G, G28U, C29A
DNA 1: CAATCTGAATTCCGGTCTCCC
DNA 2: TGGTGGCTACGACGGGATT
B19: GCAGAUC (DNA:RNA)
RNA: B3 RNA with U25G, U27A, C29A, A30U, A31C
DNA 1: CAATCTGAATTCCGGTCTCCC
DNA 2: TGGTGGCTACGACGGGATT
B20: GCAGACC (DNA:RNA)
RNA: B3 RNA with U25G, U27A, C29A, A30C, A31C
DNA 1: CAATCTGAATTCCGGTCTCCC
DNA 2: TGGTGGCTACGACGGGATT
B21: CUUACAU (DNA:RNA)
RNA: B1 RNA with A25C, G27U, G29C, G30A
DNA 1: CAATCTGAATTCCGGTCTCCC
DNA 2: TGGTGGCTACGACGGGATT
B22: GCCUCAA (DNA:RNA)
RNA: B3 RNA with U25G, U27C, G28U
DNA 1: CAATCTGAATTCCGGTCTCCC
DNA 2: TGGTGGCTACGACGGGATT
B23: AAUGCCU (DNA:RNA)
RNA: B3 RNA with U25A, C26A, A30C, A31U
DNA 1: CAATCTGAATTCCGGTCTCCC
DNA 2: TGGTGGCTACGACGGGATT
B24: GACGUGC (DNA:RNA)
RNA: B1 RNA with A25G, U26A, G27C, A28G, G29U, U31C
DNA 1: CAATCTGAATTCCGGTCTCCC
DNA 2: TGGTGGCTACGACGGGATT
B25: AAAAGCA (DNA:RNA)
RNA: B1 RNA with U26A, G27A, G30C, U31A
DNA 1: CAATCTGAATTCCGGTCTCCC
DNA 2: TGGTGGCTACGACGGGATT
B26: UUAGGCU (DNA:RNA)
RNA: B1 RNA with A25U, G27A, A28G, G30C
DNA 1: CAATCTGAATTCCGGTCTCCC
DNA 2: TGGTGGCTACGACGGGATT
B27: UAAUGCU (DNA:RNA)
RNA: B1 RNA with A25U, U26A, G27A, A28U, G30C
DNA 1: CAATCTGAATTCCGGTCTCCC
DNA 2: TGGTGGCTACGACGGGATT
B28: CUUAACA (DNA:RNA)
RNA: B1 RNA with A25C, G27U, G29A, G30C, U31A
DNA 1: CAATCTGAATTCCGGTCTCCC
DNA 2: TGGTGGCTACGACGGGATT
B29: CCCAGCG (DNA:RNA)
RNA: B1 RNA with A25C, U26C, G27C, G30C, U31G
DNA 1: CAATCTGAATTCCGGTCTCCC
DNA 2: TGGTGGCTACGACGGGATT
B30: GACGUUG (DNA:RNA)
RNA: B3 RNA with U25G, C26A, U27C, C29U, A30U, A31G
DNA 1: CAATCTGAATTCCGGTCTCCC
DNA 2: TGGTGGCTACGACGGGATT
B31: GCGCGGG (DNA:RNA)
RNA: B1 RNA with A25G, U26C, A28C, U31G
DNA 1: CAATCTGAATTCCGGTCTCCC
DNA 2: TGGTGGCTACGACGGGATT

Residue numbers refer to the chain shown, from its start. The list shows a part of the results.

This test deals with T1, RBFOX1 RRM (Homo sapiens, UniProt Q9NWB1 109-208).
T1 sequence: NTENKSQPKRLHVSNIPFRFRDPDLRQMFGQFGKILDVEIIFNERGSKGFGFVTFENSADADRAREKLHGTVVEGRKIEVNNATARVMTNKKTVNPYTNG
Nature of the test: EMSA; HiTS-Eq, 1 nM pool, 10 min; buffer printed only for the single-RNA assays: 10 mM Tris pH 7.5, 150 mM NaCl, 3.4 mM EDTA, 0.001% NP-40, 30 C. To be noted: tags: His6 N-terminal (pET28a); label: 5' 32P. Summed up: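 Purified RbFox RRM (wild type or mutant) was equilibrated for 10 min in 50 µL with 1 nM of a 5′-radiolabelled pool of RNA with 7 randomized nucleotides, its flanks annealed to DNA oligonucleotides, across increasing protein concentrations. Free RNA was separated by 8% native PAGE, excised, reverse-transcribed, PCR-barcoded and sequenced on an Illumina HiSeq 2500. Relative association constants came from read-count changes of each variant against the control reaction, normalised to the cognate motif.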
B1: the binding signal is 0.0122 KA relative to UGCAUGU.
Consider B2, for which the binding signal was 0.018 KA relative to UGCAUGU.
Under B3 stands 0.0129 KA relative to UGCAUGU; under B4, 0.00985 KA relative to UGCAUGU; under B5, 0.00931 KA relative to UGCAUGU.
For B6 the value was 0.00711 KA relative to UGCAUGU; for B7, 0.0143 KA relative to UGCAUGU; for B8, 0.00695 KA relative to UGCAUGU.
Under B9 stands 0.0437 KA relative to UGCAUGU; under B10, 0.00999 KA relative to UGCAUGU; under B11, 0.0112 KA relative to UGCAUGU.
For B12, the binding signal was 0.0151 KA relative to UGCAUGU.
Turning to B13, the binding signal was 0.0209 KA relative to UGCAUGU.
Under B14 stands 0.00996 KA relative to UGCAUGU; under B15, 0.0157 KA relative to UGCAUGU.
Under B16 stands 0.00848 KA relative to UGCAUGU; under B17, 0.0165 KA relative to UGCAUGU.
For B18 the value was 0.00419 KA relative to UGCAUGU; for B19, 0.0109 KA relative to UGCAUGU.
Turning to B20, the binding signal was 0.0047 KA relative to UGCAUGU.
For B21 the value was 0.00228 KA relative to UGCAUGU.
For B22 the value was 0.00569 KA relative to UGCAUGU.
Consider B23, for which the binding signal is 0.0058 KA relative to UGCAUGU.
Under B24 stands 0.0187 KA relative to UGCAUGU; under B25, 0.00717 KA relative to UGCAUGU.
Regarding B26, the binding signal was 0.0153 KA relative to UGCAUGU.
Under B27 stands 0.0118 KA relative to UGCAUGU.
Regarding B28, the binding signal is 0.00209 KA relative to UGCAUGU.
Under B29 stands 0.0092 KA relative to UGCAUGU; under B30, 0.0239 KA relative to UGCAUGU; under B31, 0.0239 KA relative to UGCAUGU.

Source of the values: article PMC9911399, “Two distinct binding modes provide the RNA-binding protein RbFox with extraordinary sequence specificity”.
